# From the supplement of paper PMC11171410
# Structures can show the parent of a compound that is named as a salt. ± gives the standard deviation of the averaged measurements. Most values come without repeats; read them as rough.
# Columns and labels:
# [1] = tested on: SUDHL6 venetoclax-resistant; test: estimated IC50 (cell viability); higher = less potent
# SUDHL6 parental = test: as above
# 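Note: compound screen comparing venetoclax-resistant SUDHL6, derived by months of escalating venetoclax exposure, with its matched parental line, IC50 from one-site nonlinear dose–response fit, geometric mean for duplicated compounds.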
SMILES,estimated IC50 [1] [µM],estimated IC50 (SUDHL6 parental) [µM]
N=C(N)NC(=N)NCCc1ccccc1 [Phenformin (hydrochloride)],6.45,> 10
CS(=O)(=O)N1CCN(Cc2cc3nc(-c4cccc5[nH]ncc45)nc(N4CCOCC4)c3s2)CC1 [Pictilisib (GDC-0941)],0.26,1.19
COc1ccc(Cl)c(Nc2nc3ccccc3nc2NS(=O)(=O)c2cccc(NC(=O)C(C)(C)N)c2)c1 [Pilaralisib (XL147)],6.72,> 10
NCCNc1ccc(NCCN)c2c1C(=O)c1ccncc1C2=O [Pixantrone (dimaleate)],3.36,6.31
CC(C)(C)c1[nH]cnc1/C=c1\[nH]c(=O)/c(=C/c2ccccc2)[nH]c1=O [Plinabulin (NPI-2358)],0.06,0.13
Cc1cc(Nc2ncc3c(n2)N(C)C(=O)N(c2cc(NC(=O)c4cccc(C(F)(F)F)c4)ccc2C)C3)n(C)n1 [Pluripotin (SC1)],0.24,0.42
Cc1ccc(C(=O)Nc2ccc(CN3CCN(C)CC3)c(C(F)(F)F)c2)cc1C#Cc1cnc2cccnn12 [Ponatinib],0.15,0.27
CCCCc1nc2cc(/C=C/C(=O)NO)ccc2n1CCN(CC)CC [Pracinostat (SB939)],0.24,0.377
COc1ccc(C[C@H](N)C(=O)N[C@H]2[C@@H](O)[C@H](n3cnc4c(N(C)C)ncnc43)O[C@@H]2CO)cc1 [Puromycin 2HCl],0.28,0.77
COc1ccc(F)c(F)c1C(=O)c1cnc(NC2CCN(S(C)(=O)=O)CC2)nc1N [R547],1.57,5.56
N[C@@H](Cc1ccccc1)C(=O)N1C/C(=C\c2ccc(Cl)c(Cl)c2)C(=O)/C(=C/c2ccc(Cl)c(Cl)c2)C1 [RA190],0.04,0.06
Nc1cc(F)ccc1NC(=O)/C=C/c1cnn(C/C=C/c2ccccc2)c1 [RGFP966],4.8,7.4
Cc1cc2c3c([n+](C)c4ccc(F)cc4c3c1)-c1cc(F)ccc1N2C [RHPS 4 methosulfate],0.47,9.15
O=C(c1ccc(OCCN2CCCCC2)cc1)c1c(-c2ccc(O)cc2)sc2cc(O)ccc12 [Raloxifene],3.55,> 10
CNC(=O)c1cc(Oc2ccc(NC(=O)Nc3cc(C(C)(C)C)nn3-c3ccc4ncccc4c3)c(F)c2)ccn1 [Rebastinib (DCC-2036)],1.79,3.32
C[C@]12CC[C@H](O)C[C@H]1CC[C@@H]1[C@@H]2CC[C@]2(C)[C@@H](c3ccc(=O)oc3)C[C@H]3O[C@]132 [Resibufogenin],2.6,6.01
c1nc2c(NC3CCCCC3)nc(Nc3ccc(N4CCOCC4)cc3)nc2[nH]1 [Reversine],3,6.35
"CO[C@H]1C[C@@H]2CC[C@@H](C)[C@@](O)(O2)C(=O)C(=O)N2CCCC[C@H]2C(=O)O[C@H]([C@H](C)C[C@@H]2CC[C@@H](OP(C)(C)=O)[C@H](OC)C2)CC(=O)[C@H](C)/C=C(\C)[C@@H](O)[C@@H](OC)C(=O)[C@H](C)C[C@H](C)/C=C/C=C/C=C/1C [Ridaforolimus (Deforolimus, MK-8669)]",0.002,> 10
O=C(NNc1nc2cc(F)ccc2n2cccc12)c1cnccn1 [SC144],0.346 ± 0.071,0.826 ± 0.34
Cc1c(Br)c(Br)c2c3c1nc(N1CCNCC1)n3CCC2 [SEL120 (SEL120-34?SEL120-34A)],2.2,4.68
CC(C)(C)C(=O)Nc1ccc2c(c1)C(=O)C(=O)c1ccccc1-2 [SF1670],0.12,0.68
COc1cc(Nc2ccnc3ccc(Br)cc23)cc(OC)c1OC [SGC-GAK-1],3.9,7.51
Cc1cc(Nc2ccc(NC(=O)c3ccc(Nc4ccnc5ccccc45)cc3)cc2)nc(N)n1 [SGI-1027],3.7,9.6
CN1CCC(CNc2ccc3ncc(-c4cccc(OC(F)(F)F)c4)n3n2)CC1 [SGI-1776 free base],3.5,8.9
Oc1ccc(Nc2nc(-c3ccc(Cl)cc3)cs2)cc1 [SKI II],3.5,7.7
O=C(Nc1ccccc1-c1cn2c(CN3CC[C@@H](O)C3)csc2n1)c1ccc2ccccc2c1 [SRT2183],3.66,7.12

SMILES,estimated IC50 [1] [µM],estimated IC50 (SUDHL6 parental) [µM]
Cc1nn(-c2ccnc(Nc3ccc(-c4csc5c(=O)cc(N6CCOCC6)oc45)cc3)n2)cc1CN1CCC1 [SRX3207],4.64,8.84
CC(C)(C)c1ccc(S(=O)(=O)NCc2ccc(C(=O)Nc3cccnc3)cc2)cc1 [STF-31],0.16,0.42
Cc1cc2c(C(=O)NC[C@H](C)c3ccccc3)c(O)c(O)cc2c(O)c1-c1c(C)cc2c(C(=O)NC[C@H](C)c3ccccc3)c(O)c(O)cc2c1O [Sabutoclax],0.55,2.55
C[n+]1cc2c3c(ccc2c2ccc4cc5c(cc4c21)OCO5)OCO3 [Sanguinarine chloride],2.28,3.69
"CC(C)n1nc(-c2ccc3oc(N)nc3c2)c2c(N)ncnc21 [Sapanisertib (INK 128, MLN0128)]",0.08,0.24
CN1CCN(CCOc2cc(OC3CCOCC3)c3c(Nc4c(Cl)ccc5c4OCO5)ncnc3c2)CC1 [Saracatinib (AZD0530)],5.42,8.15
CNC(=O)c1cc(Oc2ccc(NC(=O)Nc3ccc(Cl)c(C(F)(F)F)c3)cc2)ccn1 [Sorafenib],2.5,8.2
Fc1ccc(CNc2ncnc3ccc(F)cc23)cc1 [Spautin-1],3.87,7.64
CC(C)n1cnc2c(NCCc3ccc(O)cc3)nc(-c3csc4ccccc34)nc21 [StemRegenin 1],2.14,3.71
N#Cc1c(Oc2ccc(F)c(NC(=O)Cc3cccc(C(F)(F)F)c3)c2)ccc2nc(NC(=O)C3CC3)sc12 [TAK-632],1,1.6
N=C1CCCN1Cc1[nH]c(=O)[nH]c(=O)c1Cl.O=c1[nH]c(=O)n([C@H]2C[C@H](O)[C@@H](CO)O2)cc1C(F)(F)F [TAS-102],1.97,> 10
O=C(Cn1cc(S(=O)(=O)N2CCCC2)ccc1=O)c1ccc(-c2cccc(C(F)(F)F)c2)cc1 [TBOPP],5.01,> 10
Cc1cc(C(C)Nc2ccccc2)c2nc(N3CCOCC3)cc(=O)n2c1 (configuration not stated) [TGX-221],6.31,> 10
CN(C)C/C=C/C(=O)Nc1ccc(C(=O)N2CCC[C@@H](Nc3ncc(Cl)c(-c4c[nH]c5ccccc45)n3)C2)cc1 [THZ531],0.31,0.54
C[C@H]1CNC(=O)c2cnn3ccc(nc23)N[C@H](C)c2cc(F)ccc2O1 [TPX-0005],3.19,6.17
Nc1cccc(-c2cc3c(Oc4cccc(O)c4)ncnc3[nH]2)c1 [TWS119],4.6,8.5
C=CCNC1=C2C[C@@H](C)C[C@H](OC)[C@H](O)[C@@H](C)/C=C(\C)[C@H](OC(N)=O)[C@@H](OC)/C=C\C=C(/C)C(=O)NC(=CC1=O)C2=O [Tanespimycin (17-AAG)],2.93,5.29
COc1cc([C@@H]2c3cc4c(cc3[C@@H](O[C@@H]3O[C@@H]5CO[C@@H](c6cccs6)O[C@H]5[C@H](O)[C@H]3O)[C@H]3COC(=O)[C@H]23)OCO4)cc(OC)c1O [Teniposide],0.86,1.89
Cn1cncc1[C@@](N)(c1ccc(Cl)cc1)c1ccc2c(c1)c(-c1cccc(Cl)c1)cc(=O)n2C [Tipifarnib],4.06,8.89
O=C1NC(=O)[C@@H](c2cn3c4c(cccc24)CCC3)[C@@H]1c1c[nH]c2ccccc12 [Tivantinib (ARQ 197)],3.9,7.7
COc1cc2nccc(Oc3ccc(NC(=O)Nc4cc(C)on4)c(Cl)c3)c2cc1OC [Tivozanib (AV-951)],5.58,> 10
Nc1ccc(-c2ccc3ncc4ccc(=O)n(-c5cccc(C(F)(F)F)c5)c4c3c2)cn1 [Torin 2],0.06,0.19
CC(C)n1nc(-c2cc3cc(O)ccc3[nH]2)c2c(N)ncnc21 [Torkinib (PP242)],0.87,3.58
"Cc1cc(Nc2cc(N3CCN(C)CC3)nc(Sc3ccc(NC(=O)C4CC4)cc3)n2)n[nH]1 [Tozasertib (VX-680, MK-0457)]",4.75,8.92
CCCc1cc(C)[nH]c(=O)c1CNC(=O)c1cc(-c2ccc(N3CCN(C(C)C)CC3)nc2)cc2c1cnn2C(C)C [UNC1999],3.78,6.67
